# Data published in publication PMC4336329 (PLoS ONE, 2015).
# Screen size: about 310,000 compounds; about 14,000 (4.5%) showed an effect of 50% or more. The effect is printed as a negative number. The list shows a part of the results.
# Biological target: human ether-à-go-go-related gene (hERG) potassium channel (human, UniProt Q12809)
# Experiment: primary screen, population patch clamp on CHO cells stably expressing hERG
# 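Also: peak tail current of the secondary pulse compared with the same well before compound.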
# Chain of human ether-à-go-go-related gene (hERG) potassium channel (Q12809 whole entry, looked up): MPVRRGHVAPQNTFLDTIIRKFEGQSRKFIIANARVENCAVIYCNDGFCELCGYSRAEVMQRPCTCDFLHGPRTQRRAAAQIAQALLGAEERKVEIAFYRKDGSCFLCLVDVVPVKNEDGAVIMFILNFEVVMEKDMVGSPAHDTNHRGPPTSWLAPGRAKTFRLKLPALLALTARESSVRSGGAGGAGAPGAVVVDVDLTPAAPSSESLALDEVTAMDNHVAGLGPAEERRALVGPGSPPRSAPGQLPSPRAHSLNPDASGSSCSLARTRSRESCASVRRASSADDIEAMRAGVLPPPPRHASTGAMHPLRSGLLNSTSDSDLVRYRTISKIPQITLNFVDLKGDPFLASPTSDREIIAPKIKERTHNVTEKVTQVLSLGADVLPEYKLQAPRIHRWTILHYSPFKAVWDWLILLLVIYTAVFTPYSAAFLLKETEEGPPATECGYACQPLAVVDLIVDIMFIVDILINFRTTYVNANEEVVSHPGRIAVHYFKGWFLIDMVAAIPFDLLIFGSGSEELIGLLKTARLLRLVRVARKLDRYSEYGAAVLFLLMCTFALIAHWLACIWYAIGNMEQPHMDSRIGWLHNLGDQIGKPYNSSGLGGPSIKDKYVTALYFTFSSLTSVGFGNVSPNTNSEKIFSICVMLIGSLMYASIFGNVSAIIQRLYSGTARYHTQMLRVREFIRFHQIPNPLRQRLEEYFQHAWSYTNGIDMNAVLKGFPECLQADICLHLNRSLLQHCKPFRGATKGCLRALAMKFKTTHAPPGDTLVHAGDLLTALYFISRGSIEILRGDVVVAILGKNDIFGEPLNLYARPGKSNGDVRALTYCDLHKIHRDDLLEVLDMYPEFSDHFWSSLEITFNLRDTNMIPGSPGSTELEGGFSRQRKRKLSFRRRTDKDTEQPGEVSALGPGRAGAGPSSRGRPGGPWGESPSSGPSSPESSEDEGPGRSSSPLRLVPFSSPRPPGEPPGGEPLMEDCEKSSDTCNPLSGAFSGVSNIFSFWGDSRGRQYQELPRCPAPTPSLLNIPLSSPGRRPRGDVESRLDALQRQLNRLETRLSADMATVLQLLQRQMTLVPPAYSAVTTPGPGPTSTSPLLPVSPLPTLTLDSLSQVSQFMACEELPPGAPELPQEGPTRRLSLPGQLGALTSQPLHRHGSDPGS
row,SMILES,"hERG current change (%, negative = inhibition) at 10uM [%]"
1,CCOC(=O)N1CCN(C(=O)CSc2nc3c([nH]c4ccccc43)c(=O)n2CCOC)CC1,-65.1
2,Cc1cc(C(=O)N/N=C/c2cccnc2)c2ccccc2n1,5.99
3,Cc1ccc(NCc2nnc(SCc3ccc(C#N)cc3)n2Cc2ccco2)c(C)c1,-70.8
4,CCc1nnc(NC(=O)CN2CCOCC2)s1,15.5
5,COc1ccccc1N(C)S(=O)(=O)c1ccc(C(=O)OCC(=O)NCc2ccco2)cc1,-10.2
6,CCN(CC)c1ccc(N=Cc2c(C)[nH]c3ccccc23)cc1,4.04
7,O=C(O)CP(=O)(O)O,13.1
8,Cn1nccc1C(=O)Nc1cccc(C(F)(F)F)c1,10.4
9,CC(C)n1c(-c2cccs2)nc2ccccc21,0.616
10,O=C(NCCc1c[nH]c2ccccc12)c1cnc2sccn2c1=O,-10.9
11,CSc1ccccc1C(=O)C1CCCN(C(=O)c2cncs2)C1 (stereo not drawn),4.56
12,c1ccc(Cn2c(CSc3nnnn3-c3ccccc3)nc3ccccc32)cc1,0.782
13,O=C(NCc1ccccn1)c1cc2c(ccc3ccccc32)oc1=O,20.1
14,Cc1cccc(Nc2nnc(C)c(=O)n2N)c1,-14.2
15,CC(C)CNC(=S)NC(=O)c1ccc([N+](=O)[O-])cc1,-14
16,COc1ccccc1CCNC(=O)CN1C(=O)c2ccccc2S1(=O)=O,2.11
17,COc1ccccc1CNC(=O)CCC(=O)n1ncc2cc(C)ccc21,0.647
18,Cc1cc(C)c(CN2CCN(Cc3ccc(C)o3)C(CCO)C2)c(-n2cccn2)c1 (stereo not drawn),-76.4
19,O=C(CCN1C(=O)/C(=C/c2ccccc2F)SC1=S)NCCCN1CCOCC1,-14
20,CCCC(=O)N1N=C(c2ccccc2)CC1c1cn(C)c2ccccc12 (stereo not drawn),-5.07
21,O=C(Cc1c(C(=O)O)[nH]c2ccccc12)NC1CCCC1,20.3
22,CNc1ccccc1,14.2
23,Cc1nn2c(=O)c3c4c(sc3nc2n1-c1ccccc1)COC(C)(C)C4,-21.4

row,SMILES,"hERG current change (%, negative = inhibition) at 10uM [%]"
1,COc1ccc(C(=O)c2ccc(N(C)C)cc2)c(OC)c1,-15.7
2,CC(=O)N(CC(=O)O)c1ccccc1C(=O)O,12
3,COc1ccc(CCn2c(-c3ccc(C(C)(C)C)cc3)n[nH]c2=S)cc1OC,7.14
4,COc1cc(-c2cc(C(=O)O)c3c(OC)c(OC)c(OC)cc3n2)ccc1O,15.4
5,COc1cc(CC2(CCc3ccncc3)C(=O)NC(=O)NC2=O)cc(OC)c1OC,18.4
6,Cc1ccc(-c2cc(C(=O)N3CCN(C(=O)c4ccco4)CC3)[nH]n2)c(C)c1,-39.7
7,CCn1c(Cc2ccccc2)nnc1SCC(=O)NC1CCCC1,31.8
8,Cc1cc(C)cc(N(C(=O)c2ccco2)C(C(=O)NC2CCCC2)c2ccncc2)c1 (stereo not drawn),9.94
9,CCCCC(=O)Nc1ccc(C(=O)N2CCCC(C(=O)OCC)C2)cc1 (stereo not drawn),7.66
10,Cc1ccc(C)c(NC(=O)C2C3CCCC2C3c2ccccc2)c1 (stereo not drawn),6.75
11,CC1=CC(c2ccccc2)n2nc(N3C(=O)c4ccccc4C3=O)nc2N1 (stereo not drawn),7.5
12,N#Cc1cc2ccccc2nc1SCC(=O)Nc1ccccc1N1CCOCC1,14.7
13,Cc1cc(/C=N/Nc2ccc([N+](=O)[O-])cn2)c(C)n1-c1ccccc1,9.19
14,Cc1ccc(N=Nc2c(N)n[nH]c2N)cc1,24.5
15,COc1ccccc1N1CCN(C(=O)c2cc(-c3ccc(F)cc3)[nH]c2C)CC1,-64.5
16,CCC(=O)Nc1ccc(NC(=O)CSc2nnnn2-c2cccnc2)cc1C,4.84
17,COc1cccc(-c2c(C#N)c(N)nc3c2c(=O)nc2sccn23)c1,17.3
18,CC1CCN(c2c(NCC3CCC(C(=O)NCc4ccccc4Cl)CC3)c(=O)c2=O)CC1 (stereo not drawn),3.96
19,COc1ccc(C2c3ccc(O)cc3Oc3ncn(CCN4CCOCC4)c(=N)c32)cc1OC (stereo not drawn),-11.8
20,N/C(=N\O)c1ccc(Cl)cc1Cl,2.46
21,CCC(CC)N1CCN(C(=O)c2cc(OC)c(OC)c(OC)c2)CC1,16.9
22,CN(Cc1ccon1)C(=O)c1ccc2nc(Cc3cccc(Cl)c3)oc2c1,-9.92
23,CN(C)c1ccc(C(C(=O)NC(C)(C)C)N(C(=O)c2csnn2)C2CC2)cc1 (stereo not drawn),2.48

row,SMILES,"hERG current change (%, negative = inhibition) at 10uM [%]"
1,Cc1cccc(NS(=O)(=O)c2cc3c4c(c2)CC(=O)N4CCC3)c1C,11.2
2,CC1=NN(/C(=N\c2nnc(C)s2)Nc2ccccc2)[C@H](c2cccc3ccccc23)S1,0.419
3,CC(C)n1c(/C=C/[C@@H](O)C[C@@H](O)CC(=O)[O-])c(-c2ccc(F)cc2)c2ccccc21.[Na+],20.6
4,CCCS(=O)(=O)NCCc1cc2ccc(OC)cc2[nH]c1=O,3.08
5,CCC(C)OC(=O)C1=C(C)O[C@]23OC(N)=C(C#N)[C@]12C(=O)c1ccccc13 (stereo partly drawn),-8.98
6,Cc1nc([N+](=O)[O-])cn1CC(=O)NCCCO,11.1
7,CN(C)CCNC(=O)C12CC3(C)CC(C)(CC(C)(C3)C1)C2.Cl,1.17
8,COc1ccc(NC(=O)CSc2nnc(C(C)C)n2N)cc1,-6.23
9,Cc1ccc(-n2c3nc(=O)n(C)c(=O)c-3cc3ccccc32)cc1,15.7
10,C/C(=N\N1CCN(C)CC1)c1c(O)n(Cc2ccccc2)c(=O)[nH]c1=O,-27.9
11,Cl.NC(N)=NCCCc1cn(CC(=O)N2CCNCC2)nn1,0.759
12,Cc1ccc(S(=O)(=O)/N=C(\CN2CCCCC2)N2CCOCC2)cc1,-17.5
13,CCCCN(C(=O)c1ccc(S(=O)(=O)N2CCC(C)CC2)cc1)C1CCS(=O)(=O)C1 (stereo not drawn),-53.2
14,Cc1ccc2c(c1)C1CN(C)CCC1N2C(=O)COc1ccc(N(C)C(=O)C(C)(C)C)cc1 (stereo not drawn),-9.48
15,COc1ccc(C(=O)N2N=C(c3ccc(NS(C)(=O)=O)cc3)CC2c2cccs2)cc1 (stereo not drawn),-10.6
16,Cl.O=C1CSC(c2ccccc2F)N1CCN1CCCCC1 (stereo not drawn),-10.6
17,NC(=O)N1CCc2ccccc21,15.9
18,COc1ccccc1N(CC(=O)NCCSCc1ccc(Cl)cc1)S(C)(=O)=O,-0.283
19,O=C(NCc1cccnc1)c1cccs1,11.7
20,CCOC(=O)N1CCN(C(=O)COc2ccc(Br)cc2)CC1,-39.1
21,COc1ccc(NC(=O)CSc2nc3c(c(=O)n2-c2ccc(F)cc2)SCC3)cc1,-15.9
22,CCCCn1c(N)c(N(CC)C(=O)c2cc(OC)cc(OC)c2)c(=O)[nH]c1=O,7.26
23,Cn1c(=O)n(C)c2cc(S(=O)(=O)N3CCN(c4ccccc4)CC3)ccc21,-12.1

row,SMILES,"hERG current change (%, negative = inhibition) at 10uM [%]"
1,CCCCC1=NC2(CCCC2)C(=O)N1Cc1ccc(-c2ccccc2-c2nn[nH]n2)cc1,5.33
2,Cc1cccc(C(=O)Nc2ccccc2SCC2CSc3nc4ccccc4c(=O)n32)c1 (stereo not drawn),-80.4
3,CC(=O)c1ccc(N2CCN(C(=O)c3ccco3)C(C)C2)c(F)c1 (stereo not drawn),-49.9
4,Cc1ccc(C(=O)N2CCN(C)CC2)cc1S(=O)(=O)N1CCOCC1,11.5
5,CCCN(CC(=O)Nc1ccccc1C)C(=O)c1ccc(N2CCOCC2)c([N+](=O)[O-])c1,-70.3
6,CCOC(=O)N1CCC(N2CCCC(CO)(Cc3cccc(Cl)c3)C2)CC1 (stereo not drawn),-49
7,S=C(NCCc1ccccc1)Nc1cccc2cnccc12,-0.828
8,Cc1ccc(OC(C)C(=O)N(C)Cc2ccccc2)c([N+](=O)[O-])n1 (stereo not drawn),10.5
9,O=C1OCCC1Sc1nc2ccccc2c(=O)n1Cc1ccc(F)cc1 (stereo not drawn),-75.5
10,Cc1c(C(=O)NC(=S)Nc2ccc3c4c(cccc24)CC3)cccc1[N+](=O)[O-],8.63
11,CCOc1ccc(CCNC(=O)COC(=O)CNS(=O)(=O)c2ccc(NC(C)=O)cc2)cc1OCC,-10.6
12,C#CCN(C)[C@H](C)Cc1ccccc1.Cl,15.7
13,Cl.N=c1ccn(Cc2cccc(Cl)c2)cc1,2.03
14,CCC(=O)Nc1cc2c(cc1C(=O)c1ccccc1)OCCO2,-3.08
15,COc1cccc(C2=CC(c3ccc(N(C)C)cc3)n3ncnc3N2)c1 (stereo not drawn),-1.72
16,O=C(COC(=O)c1ccc(OC(F)F)cc1)NCCC1=CCCCC1,-3.79
17,O=C(COC(=O)c1c2c(nc3ccccc13)CCCC2)c1ccc(Br)s1,-0.671
18,O=C(CCn1[nH]c(=O)c2ccccc2c1=O)N1CCOCC1,27.6
19,CSc1nncn1/N=C/c1cc(Cl)ccc1F,-3.41
20,O=C(Nc1c(F)c(F)c(F)c(F)c1F)C1CCCCC1,-3.18
21,CC(=O)OC1N=C(c2ccccc2)c2ccccc2NC1=O (stereo not drawn),9.23
